Experimental data: a compilation of properties of binary mixtures (doi:10.1016/j.molliq.2016.01.085)
The densities may have been worked out from excess volumes.

Assay: xn = mol fraction of the nth substance listed
Conditions: 101 kPa

Q: Which results are given for `CCCOCCO` + CCCC[n+]1ccn(C)c1.F[P-](F)(F)(F)(F)F?
A: mass density (298.15 K, x1 = 0.1468): 1328.7 kg/m3; mass density (298.15 K, x1 = 0.1945): 1315 kg/m3; mass density (298.15 K, x1 = 0.3063): 1279.9 kg/m3; mass density (298.15 K, x1 = 0.5119): 1202.8 kg/m3; mass density (298.15 K, x1 = 0.6168): 1155.3 kg/m3; mass density (298.15 K, x1 = 0.8043): 1051.5 kg/m3; mass density (298.15 K, x1 = 0.8873): 995.5 kg/m3; mass density (303.15 K, x1 = 0.1468): 1324.5 kg/m3; mass density (303.15 K, x1 = 0.1945): 1310.7 kg/m3; mass density (303.15 K, x1 = 0.3953): 1244.5 kg/m3; mass density (303.15 K, x1 = 0.5119): 1198.5 kg/m3; mass density (303.15 K, x1 = 0.6168): 1151 kg/m3; mass density (303.15 K, x1 = 0.702): 1107.3 kg/m3; mass density (303.15 K, x1 = 0.8873): 991.1 kg/m3; mass density (303.15 K, x1 = 1): 902.7 kg/m3; mass density (308.15 K, x1 = 0.1468): 1320.2 kg/m3; mass density (308.15 K, x1 = 0.3063): 1271.3 kg/m3; mass density (308.15 K, x1 = 0.3953): 1240.2 kg/m3; mass density (308.15 K, x1 = 0.5119): 1194.2 kg/m3; mass density (308.15 K, x1 = 0.6168): 1146.7 kg/m3; mass density (308.15 K, x1 = 0.702): 1102.9 kg/m3; mass density (308.15 K, x1 = 0.8873): 986.7 kg/m3; mass density (308.15 K, x1 = 1): 898.3 kg/m3; mass density (313.15 K, x1 = 0.1468): 1316 kg/m3; mass density (313.15 K, x1 = 0.1945): 1302.2 kg/m3; mass density (313.15 K, x1 = 0.3063): 1267.1 kg/m3; mass density (313.15 K, x1 = 0.3953): 1235.9 kg/m3; mass density (313.15 K, x1 = 0.5119): 1189.9 kg/m3; mass density (313.15 K, x1 = 0.6168): 1142.3 kg/m3; mass density (313.15 K, x1 = 0.8043): 1038.4 kg/m3; mass density (313.15 K, x1 = 0.8873): 982.3 kg/m3; mass density (313.15 K, x1 = 1): 893.9 kg/m3; mass density (318.15 K, x1 = 0.1468): 1311.7 kg/m3; mass density (318.15 K, x1 = 0.1945): 1297.9 kg/m3; mass density (318.15 K, x1 = 0.3063): 1262.8 kg/m3; mass density (318.15 K, x1 = 0.3953): 1231.6 kg/m3; mass density (318.15 K, x1 = 0.702): 1094.2 kg/m3; mass density (318.15 K, x1 = 0.8043): 1034 kg/m3; mass density (318.15 K, x1 = 0.8873): 977.9 kg/m3; mass density (318.15 K, x1 = 1): 889.5 kg/m3; mass density (323.15 K, x1 = 0.1945): 1293.6 kg/m3; mass density (323.15 K, x1 = 0.3063): 1258.5 kg/m3; mass density (323.15 K, x1 = 0.3953): 1227.2 kg/m3; mass density (323.15 K, x1 = 0.5119): 1181.2 kg/m3; mass density (323.15 K, x1 = 0.702): 1089.8 kg/m3; mass density (323.15 K, x1 = 0.8043): 1029.6 kg/m3; mass density (323.15 K, x1 = 0.8873): 973.4 kg/m3; mass density (323.15 K, x1 = 1): 885 kg/m3

Q: For `CCCC[n+]1ccn(C)c1.F[P-](F)(F)(F)(F)F` + CCCOCCO, which mass density (298.15 K, x2 = 0) is on record?
A: The mass density was 1367.2 kg/m3.

Q: And the mass density (308.15 K, x2 = 0)?
A: The mass density was 1358.7 kg/m3.

Q: And the mass density (323.15 K, x2 = 0)?
A: The mass density was 1346 kg/m3.
